{"source": "the RNAGym collection of RNA variant scans (doi:10.1073/pnas.2313332121)", "parents": {"B1": {"name": "TPR 5TU (parent)", "chain": "GGAUCUUCUCGAUCUAACAAAAAAGACAAAUCUGCCACAAAGCUUGAGAGCAUCUUCGGAUGCAGAGGCGGCAGCCUUCGGUGGCGCGAUAGCGCCAACGUUCUCAACUAUGACACGCAAAACGCGUGCUCCGUUGAAUGGAGUUUAUCAUG"}}, "note": "Variants at the background level are over-represented here."}
{"variants_of": "B1", "assay": "polymerase ribozyme fitness, log enrichment relative to wild type (log ratio); higher = more active; in vitro selection for triplet polymerase activity", "procedure,_shortened": "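PCR was used to build mutant libraries for each subunit of a heterodimeric triplet polymerase ribozyme, which were then transcribed. A single in vitro selection round, in triplicate, used a frozen incubation at −7 °C and recovered extended constructs by gel excision, streptavidin beads and RT-PCR. Fitness is the logarithm of genotype enrichment relative to wild-type enrichment, averaged over replicates with inverse-variance weights. The logarithm is base 2, and after Illumina sequencing only genotypes with ≥10 input reads and ≥1 read per output were kept.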"}
{"variant": "U7C G25U A39C G84U C85A U148A", "polymerase ribozyme fitness (log ratio)": "≤ -4.2"}
{"variant": "U6C C96G C105U", "polymerase ribozyme fitness (log ratio)": -0.764}
{"variant": "U6G C14G A16C A20U A21U G42A U61A A64G G71A C85U C87U C129U G136A", "polymerase ribozyme fitness (log ratio)": "≤ -4.2"}
{"variant": "U7G A47G U77A", "polymerase ribozyme fitness (log ratio)": "≤ -4.2"}
{"variant": "U6G G50U G83U G117U G133U U151A", "polymerase ribozyme fitness (log ratio)": "≤ -4.2"}
{"variant": "U6C U45G U55A U61G C105U U127A", "polymerase ribozyme fitness (log ratio)": "≤ -4.2"}
{"variant": "U7A C43U U78A G80C C93U C96A G143U U148A", "polymerase ribozyme fitness (log ratio)": "≤ -4.2"}
{"variant": "U6G A37G C38G C95U C116U G136U U139A U146C", "polymerase ribozyme fitness (log ratio)": "≤ -4.2"}
{"variant": "U7G A19U A23U A28G C32A C54U U56A A113C G126U", "polymerase ribozyme fitness (log ratio)": "≤ -4.2"}
{"variant": "U6G A21C U33G U44G C57G C99U U104G C105U U135G U151G", "polymerase ribozyme fitness (log ratio)": "≤ -4.2"}
{"variant": "U7G C10G U13C A23U G25C A29U C43U C57U C75U G80A C95G U101G G136C G143A", "polymerase ribozyme fitness (log ratio)": "≤ -4.2"}
{"variant": "U7G C10U U15C A16G C18A A29G G59C C85G C116U", "polymerase ribozyme fitness (log ratio)": "≤ -4.2"}
{"variant": "U7A A49U G80U G88U A115C", "polymerase ribozyme fitness (log ratio)": "≤ -4.2"}
{"variant": "U7C C32G A40C C54G U77C A138G", "polymerase ribozyme fitness (log ratio)": "≤ -4.2"}
{"variant": "U6C U56G A64C G143U", "polymerase ribozyme fitness (log ratio)": "≤ -4.2"}
{"variant": "U6G C14U A26U G42C G50A U55A A60U G94A U101C A110U G133U U146C", "polymerase ribozyme fitness (log ratio)": "≤ -4.2"}
{"variant": "U7C U15G A41U A52G C96A", "polymerase ribozyme fitness (log ratio)": -3.52}
{"variant": "U6G C18G C36U C96G A98G", "polymerase ribozyme fitness (log ratio)": -2.92}
{"variant": "U7G A28C C54U U56C U82G C85A C108U A115C", "polymerase ribozyme fitness (log ratio)": "≤ -4.2"}
{"variant": "U6G C8G C14U A20U U56A G92U A137C G140A", "polymerase ribozyme fitness (log ratio)": "≤ -4.2"}
{"variant": "U7C G62A C63U A66C C93U", "polymerase ribozyme fitness (log ratio)": "≤ -4.2"}
{"variant": "U6G C14G A21U C51U U55A U78G G83U A113G A138C", "polymerase ribozyme fitness (log ratio)": "≤ -4.2"}
{"variant": "U7C A41U G58C C87G C132A", "polymerase ribozyme fitness (log ratio)": "≤ -4.2"}
{"variant": "U6G C79A G80A U104G A107U C118U U127G", "polymerase ribozyme fitness (log ratio)": "≤ -4.2"}
{"variant": "U6G C10U A17U A20G C38G C85U G88A U90C", "polymerase ribozyme fitness (log ratio)": "≤ -4.2"}
{"variant": "U6G U53C U61G C99U", "polymerase ribozyme fitness (log ratio)": "≤ -4.2"}
{"variant": "U6G A17U A21U A49C C51U C79U G84A C114G", "polymerase ribozyme fitness (log ratio)": "≤ -4.2"}
{"variant": "U7A A91G U145G", "polymerase ribozyme fitness (log ratio)": "≤ -4.2"}
{"variant": "U6G A47C C87A U148G", "polymerase ribozyme fitness (log ratio)": "≤ -4.2"}
{"variant": "U6C U13G G42U G46A G58A G59A U61A U82G G83A C116A G133C", "polymerase ribozyme fitness (log ratio)": "≤ -4.2"}
{"variant": "U7A G58C", "polymerase ribozyme fitness (log ratio)": -3.68}
{"variant": "U6G A16G A29U C54U G86A U102G", "polymerase ribozyme fitness (log ratio)": "≤ -4.2"}
{"variant": "U6C G58C G84C U134G", "polymerase ribozyme fitness (log ratio)": "≤ -4.2"}
{"variant": "U7G A24U C57U G83A G88C A107U U111G U134A A137C G140C G143C", "polymerase ribozyme fitness (log ratio)": "≤ -4.2"}
{"variant": "U7C A40U C76U U101G A122G A147U", "polymerase ribozyme fitness (log ratio)": "≤ -4.2"}
{"variant": "U7A U78A G84U A107U U134A", "polymerase ribozyme fitness (log ratio)": "≤ -4.2"}
{"variant": "U7A G48A G65C G100U C149U", "polymerase ribozyme fitness (log ratio)": "≤ -4.2"}
{"variant": "U7A U45C G50U G83A A89U G94C A115U G141A", "polymerase ribozyme fitness (log ratio)": "≤ -4.2"}
{"variant": "U7G C14A A60G U82G A91U G92C A107U C131U", "polymerase ribozyme fitness (log ratio)": "≤ -4.2"}
{"variant": "U7G A49C A64C G68U G92U", "polymerase ribozyme fitness (log ratio)": "≤ -4.2"}
{"variant": "U6C U44A C87A U134A A137C A142U C149A", "polymerase ribozyme fitness (log ratio)": "≤ -4.2"}
{"variant": "U7G A23G A30U C38U C85G A119U", "polymerase ribozyme fitness (log ratio)": "≤ -4.2"}
{"variant": "U7A C43U", "polymerase ribozyme fitness (log ratio)": "≤ -4.2"}
{"variant": "U6G C14U A26U G42C G50A U55A A60U G94A U101C A110U G133U G141A U145A", "polymerase ribozyme fitness (log ratio)": "≤ -4.2"}
{"variant": "U7C G50C C51U C87U G152U", "polymerase ribozyme fitness (log ratio)": "≤ -4.2"}
{"variant": "U7G A17C A24U A52G A64G C72G C85U G88U G92U C93G A119U", "polymerase ribozyme fitness (log ratio)": "≤ -4.2"}
{"variant": "U6G U7A C8A U31C U56G G84A", "polymerase ribozyme fitness (log ratio)": "≤ -4.2"}
{"variant": "U6G U9C A29C G42A G88C C93U C118G C129G", "polymerase ribozyme fitness (log ratio)": "≤ -4.2"}
{"variant": "U7G A24C C43A A47G C75U C85A G86A C103G", "polymerase ribozyme fitness (log ratio)": "≤ -4.2"}
{"variant": "U6C C103G U135G", "polymerase ribozyme fitness (log ratio)": "≤ -4.2"}
{"variant": "U6G A20C A28U C38U C43U G70U G86U C96U G128A A142C", "polymerase ribozyme fitness (log ratio)": "≤ -4.2"}
{"variant": "U6G U13G A41U A52C G133U A138G U148G", "polymerase ribozyme fitness (log ratio)": "≤ -4.2"}
{"variant": "U6G G11A A20U U44G C87G C132U A138C", "polymerase ribozyme fitness (log ratio)": "≤ -4.2"}
{"variant": "U7A A22C C32U U33C A37U C54U U56A U101A", "polymerase ribozyme fitness (log ratio)": "≤ -4.2"}
{"variant": "U6C U33G", "polymerase ribozyme fitness (log ratio)": "≤ -4.2"}
{"variant": "U7A A19U A49U G88U G100U", "polymerase ribozyme fitness (log ratio)": "≤ -4.2"}
{"variant": "U6G A16G A21C A26U G42U U44A U77G C79U G128U", "polymerase ribozyme fitness (log ratio)": "≤ -4.2"}
{"variant": "U6G A21C C75U U144A", "polymerase ribozyme fitness (log ratio)": -0.201}
{"variant": "U7G A89U U135C G141C", "polymerase ribozyme fitness (log ratio)": "≤ -4.2"}
{"variant": "U6G A19U C27A A30U A41C C87G U144G", "polymerase ribozyme fitness (log ratio)": "≤ -4.2"}
{"variant": "U7A U15A A30G A41U C72U C79A G84A U90G C96U C118U U146A", "polymerase ribozyme fitness (log ratio)": "≤ -4.2"}
{"variant": "U7C A17U U44A G83C A113G U144C", "polymerase ribozyme fitness (log ratio)": "≤ -4.2"}
{"variant": "U7C A40U G71A C93G A150C", "polymerase ribozyme fitness (log ratio)": "≤ -4.2"}
{"variant": "U7A C35U C57A C69A A113U G152C", "polymerase ribozyme fitness (log ratio)": "≤ -4.2"}
{"variant": "U6G A12G C36G C72G G80A C132A", "polymerase ribozyme fitness (log ratio)": "≤ -4.2"}
{"variant": "U7A C27A G59U G83A G94A C103G", "polymerase ribozyme fitness (log ratio)": "≤ -4.2"}
{"variant": "U7C A29U G50C A52U G83C G124C A138G", "polymerase ribozyme fitness (log ratio)": "≤ -4.2"}
{"variant": "U6C G83A C114U", "polymerase ribozyme fitness (log ratio)": -2.57}
{"variant": "U6G G83U C87U C93U G100U A107U", "polymerase ribozyme fitness (log ratio)": "≤ -4.2"}
{"variant": "U7G A26C U44A G74C A115C", "polymerase ribozyme fitness (log ratio)": "≤ -4.2"}
{"variant": "U7A C38U A66G C76U U78A C114A G141C", "polymerase ribozyme fitness (log ratio)": "≤ -4.2"}
{"variant": "U7A A20G G86C G92A A115C G140C A150C", "polymerase ribozyme fitness (log ratio)": "≤ -4.2"}
{"variant": "U6G A23U A40U G42A U77C G83U G140A", "polymerase ribozyme fitness (log ratio)": "≤ -4.2"}
{"variant": "U6G A41G G42A U56A A73G G83U G88A C96G A115G", "polymerase ribozyme fitness (log ratio)": "≤ -4.2"}
{"variant": "U7C U13A C32G A91C", "polymerase ribozyme fitness (log ratio)": "≤ -4.2"}
{"variant": "U7C U31A G46A G59C C85G C118U", "polymerase ribozyme fitness (log ratio)": "≤ -4.2"}
{"variant": "U6C U44A A52C U82G C85U A121C U127G C132U", "polymerase ribozyme fitness (log ratio)": "≤ -4.2"}
{"variant": "U7C C10U A40U U53A C93G C99U", "polymerase ribozyme fitness (log ratio)": "≤ -4.2"}
{"variant": "U6G C8G C18U C54U C131U", "polymerase ribozyme fitness (log ratio)": -3.56}
{"variant": "U6G G46A A113U C125U G136U U146C", "polymerase ribozyme fitness (log ratio)": "≤ -4.2"}
{"variant": "U7G", "polymerase ribozyme fitness (log ratio)": -2.22}
{"variant": "U7A", "polymerase ribozyme fitness (log ratio)": -2.18}
{"variant": "U6G A120C G136C", "polymerase ribozyme fitness (log ratio)": -3.69}
{"variant": "U7C A39G C85G C105A A107U", "polymerase ribozyme fitness (log ratio)": "≤ -4.2"}
